Measured values reported in patent US8470805B2, “Processes for preparing piperazinium salts of KMUP and use thereof” (Kaohsiung Medical University, priority 2009, dated 2013).

System: matrix metalloprotease-9 (MMP-9)
[1] = aerosol 5 mM/30 mins/day, day 21 to 27, OVA, N=6

Compound	Inhibition (%) of MMP-9 in lung tissues (mouse, in vivo)	Inhibition (%) of MMP-9 in lung tissues [1]
Cl.Cn1c(=O)c2c(ncn2CCN2CCN(c3ccccc3Cl)CC2)n(C)c1=O [KMUP-1 HCl salt, 7-[2-[4-(2-chlorobenzene)piperazinyl]ethyl]-1,3-dimethyl xanthine HCl]	55 ± 3.5%	
CC(C)(O)c1ccccc1CCC(SCC1(CC(=O)O)CC1)c1cccc(/C=C/c2ccc3ccc(Cl)cc3n2)c1.Cn1c(=O)c2c(ncn2CCN2CCN(c3ccccc3Cl)CC2)n(C)c1=O (stereo not drawn) [KMUP-1-Montelukast, KMUP-1-montelukast complex]		70 ± 5.2%
KMUP-1-Cromolyn mono-sodium complex		60 ± 4.4%

Where two headings read alike, the source gives them in different places.
